# Test results published in publication PMC6919601, “Identification of Plasmodium dipeptidyl aminopeptidase allosteric inhibitors by high throughput screening” (PLoS ONE, 2019).
# Out of some 110,000 compounds screened, about 230 (0.21%) showed an effect of 50% or more. Some of the results follow.
# Target: DPAP1 (Plasmodium falciparum, UniProt Q8IIJ9)
# Experiment: primary screen, percent inhibition; read by cleavage of a fluorogenic dipeptide substrate; higher = more effect of the substance
# Parameters: species or system P. falciparum D10 trophozoite lysates; single well
# 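Note: 30 min substrate incubation versus DMSO and 10 µM JCP410 controls.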
# Chain of DPAP1 (Q8IIJ9 whole entry, looked up): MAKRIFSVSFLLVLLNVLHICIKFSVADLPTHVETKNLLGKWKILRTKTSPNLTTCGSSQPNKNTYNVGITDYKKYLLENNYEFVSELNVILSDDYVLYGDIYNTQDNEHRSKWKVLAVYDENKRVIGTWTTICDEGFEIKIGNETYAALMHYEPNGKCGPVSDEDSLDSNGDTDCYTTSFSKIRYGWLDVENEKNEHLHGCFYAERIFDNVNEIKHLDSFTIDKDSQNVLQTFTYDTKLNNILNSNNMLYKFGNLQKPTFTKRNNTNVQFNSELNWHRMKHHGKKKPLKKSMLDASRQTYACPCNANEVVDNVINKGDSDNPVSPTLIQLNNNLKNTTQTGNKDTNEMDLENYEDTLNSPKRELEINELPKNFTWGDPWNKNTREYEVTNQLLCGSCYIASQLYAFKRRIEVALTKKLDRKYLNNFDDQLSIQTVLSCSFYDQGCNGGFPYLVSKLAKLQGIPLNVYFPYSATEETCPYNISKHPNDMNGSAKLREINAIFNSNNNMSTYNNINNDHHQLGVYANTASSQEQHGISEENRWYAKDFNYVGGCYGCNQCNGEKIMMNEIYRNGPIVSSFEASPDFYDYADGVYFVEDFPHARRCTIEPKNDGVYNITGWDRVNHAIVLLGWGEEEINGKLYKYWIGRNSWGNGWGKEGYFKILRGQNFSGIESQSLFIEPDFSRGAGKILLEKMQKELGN
row,Compound,% Inhibition @ 10 uM [%]
1,CCc1ccc(C2C(C(=O)OC)=CN(Cc3ccc(C)cc3)C=C2C(=O)OC)s1,-10.9
2,OC12CC3CC(C1)C(N1CCNCC1)C(C3)C2 (stereo not drawn),1.43
3,COc1cc(Br)c(CNC2CCCC2)cc1OC,1.43
4,Cc1nn(C)cc1CNC(=O)c1cnn2c(C(F)(F)F)cc(-c3ccccc3)nc12,5.31
5,CCC(C)(C)C1CCc2c(sc(N)c2C#N)C1 (stereo not drawn),14.2
6,CC(C)(C)N(CCNS(=O)(=O)c1csc(C(N)=O)c1)Cc1ccco1,-6.47
7,CCCCC(=O)Nc1nnc(S(=O)(=O)N(CC)Cc2ccc(OC)cc2)s1,3.72
8,CCc1nn2c(=O)cc(COc3ccc(/C=C4/N=C(c5cccc(C)c5)OC4=O)cc3)nc2s1,-7.65
9,CCOC(=O)c1sc(NC(=O)COc2ccc(Cl)cc2)c(C(=O)OCC)c1C,7.31
10,COc1ccccc1C(=O)NC1(C(F)(F)F)C(=O)Nc2c1c(=O)[nH]c(=O)n2-c1ccc(C)cc1 (stereo not drawn),4.39
11,O=C(CN1CCN(c2ccccc2)CC1)Nc1cc(C(F)(F)F)ccc1Cl,-3.69
12,CC(C)(C)C1CCC2(CC1)N=C(c1ccccc1)C(=O)N2 (stereo not drawn),4.63
13,O=C(NC1CCN(Cc2ccccc2)CC1)c1ccccc1F,0.177
14,Cc1ccc(-n2ncc3c(NCCN(C)C)ncnc32)cc1C,4.61
15,COc1ccc(OC)c(C2C(C#N)=C(N)N(c3nc[nH]n3)C3=C2C(=O)CC(C)(C)C3)c1 (stereo not drawn),2.38
16,CCOCCCNC(=O)c1ccc(CS(=O)(=O)Cc2cccc(C)c2)o1,-1.79
17,N#CC1=C(N)OC2=C(C(=O)CC(c3ccccc3)C2)C1c1ccc(F)cc1F (stereo not drawn),-4.94
18,COc1ccc(Cl)cc1NC(=O)c1cnn2c1NC(c1ccco1)CC2C(F)(F)F (stereo not drawn),9.33
19,Oc1cc(CSc2nnnn2-c2ccccc2)nc2ncnn12,-8.55
20,Cc1nc2c(c(C)nn2C(C)(C)C)c(C)c1CCC(=O)N1CCN(c2ccccn2)CC1,-4.24
21,O=C(O)COc1ccc(NC(=O)COc2ccccc2Cl)cc1,-3.85
22,O=C(NCCCO)C(=O)NCCc1ccc(Cl)cc1,-6.95
23,CC1CCCC(NC(=O)C2CCCN(C(=O)c3cc4sccc4n3C)C2)C1C (stereo not drawn),-9.48
24,O=C(CCN1CCCCCC1)c1ccccc1,-0.0953

row,Compound,% Inhibition @ 10 uM [%]
1,CSC1=C(C#N)C(c2ccccc2C)CC(=O)N1 (stereo not drawn),0.673
2,COc1ccc(C2NC(C(=O)O)Cc3c2[nH]c2ccccc32)cc1O (stereo not drawn),1.66
3,CC1=C(C(=O)OCCc2ccccc2)C(c2ccccc2Cl)NC(=O)N1 (stereo not drawn),-0.436
4,CCO/C(O)=C1/C(C)=NC2=C(C(=O)CC(C)(C)C2)C1c1ccc(SC)cc1 (stereo not drawn),-3.09
5,CCOc1ccc(-c2cc(NC(=O)c3nn(C)c4c3COc3ccccc3-4)on2)cc1OCC,-1.72
6,CS(=O)(=O)C1=NSC2=NC(=O)/C(=C\c3ccc(OCc4ccc5c(c4)OCO5)cc3)C(=N)N21,5.06
7,CCOC(=O)c1c(NC(=O)CNCc2ccccc2)sc2c1CCCC2,-3.92
8,COc1ccc(/C=C2\C=C(c3ccc(Cl)cc3)OC2=O)c(C)c1,3.72
9,CCCCn1c(-c2ccc(OC)c(OC)c2)nc2ccccc21,2.73
10,COc1cccc(C2CC(=O)NC(SCC(N)=O)=C2C#N)c1 (stereo not drawn),0.673
11,C=CCNCc1nc2ccccc2c(=O)n1-c1ccc(OCC)cc1,1.94
12,COc1ccc2nc3c(nc2c1)C(=O)c1ccccc1C3=O,-1.72
13,O=C1CCC(=O)N1c1ccc(Oc2ccc(Cl)cc2Cl)cc1,-5.11
14,O=C(c1cc2ccccc2oc1=O)N(Cc1ccccc1)C1CCS(=O)(=O)C1 (stereo not drawn),-1.33
15,COc1cc2c(cc1OC)C(C(=O)NCCCN1CCN(C)CC1)C1c3ccccc3CCN1C2=O (stereo not drawn),-1.54
16,COc1ccc(NC(=O)C2CC3CCC2C3)cc1OC (stereo not drawn),0.219
17,Cc1ccc(-c2noc(CCC(=O)NC3CCCc4ccccc43)n2)cc1 (stereo not drawn),0.738
18,COc1ccc(C)cc1N(CC(=O)Nc1ccc(NC(C)=O)cc1)S(=O)(=O)c1ccccc1,1.71
19,CCN1CCC(N2CCN(C/C=C/c3ccccc3)CC2)CC1,3.19
20,CCCCOc1ccc(S(=O)(=O)N2CCC(C(N)=O)CC2)cc1,5.03
21,CCOc1ccc(N(CC(=O)N2CCC(C)CC2)S(=O)(=O)c2ccc(C)cc2)cc1,2.84
22,COc1ccc(/N=C2\SC(C(=O)Nc3ccccc3OC)CC(=O)N2C)cc1 (stereo not drawn),0.385
23,COC(=O)c1ccc(CS(=O)(=O)c2ccccc2OC)o1,-0.256
24,Cc1ccc(C)c(-n2c(-c3ccccc3)cc3c2CC(C)(C)CC3=O)c1,-5.62

row,Compound,% Inhibition @ 10 uM [%]
1,O=C(NC(Cc1ccccc1)c1ccc2c(c1)OCCCO2)c1cccs1 (stereo not drawn),-1.28
2,COc1cc(NC(=O)C23CC4CC(CC(C4)C2)C3)c(OC)cc1NC(C)=O,4.19
3,CCOc1ccc(-c2nc(C#N)c(N3CCCCCC3)o2)cc1,-1.43
4,CC(=O)c1ccc(NC(=O)/C=C/c2ccc(Cl)cc2)cc1,-1.62
5,Cc1ccc2nc3c(O)n(CC(=O)N4CCCC4)ncc-3c2c1,-1.97
6,O=C1NC(c2ccccc2)=NC1(Nc1ncc(C(F)(F)F)cc1Cl)C(F)(F)F (stereo not drawn),-4.04
7,COc1cc2cc(=O)n(Cc3ccco3)c(C)c2cc1OC,6.66
8,CCCC[C@H](NC(=O)C(Cc1c(F)cccc1F)NC(=O)c1ccc(-c2ccccc2Cl)cc1)C(=O)c1nnc(-c2cccnc2)o1 (stereo partly drawn),2.87
9,CCOC(=O)C1=C(C)N=c2s/c(=C/c3cnn(C)c3C)c(=O)n2C1c1ccc(OC)cc1OC (stereo not drawn),3.81
10,Cc1ccc(C2=NN(CC(=O)NCc3ccc(F)cc3)C(=O)CC2)cc1,6.86
11,CN(C)CCN(C)Cc1ccc(F)c(F)c1,-2.54
12,CCCOc1ccc(C2c3c(-c4cc(C)ccc4O)n[nH]c3C(=O)N2CCOC)cc1 (stereo not drawn),0.558
13,Cc1ccc(NC(=O)CCN2CCN(Cc3ccccc3)CC2)cc1Br,-1.95
14,Cc1nc2ncnn2c(C)c1CCC(=O)N1CCN(Cc2ccccc2)CC1,2.93
15,O=C(Cn1c2ccccc2c2cnnc(O)c21)NCc1ccccn1,-0.281
16,N#Cc1ccc(NC(=O)c2ccc(Cl)cc2Cl)cc1,2.17
17,CC(=O)c1ccc(NC(=O)c2ccncc2)cc1,-3.45
18,CNC(=O)C1CCN(c2nc3c(C)cc(C)cc3s2)CC1,3.4
19,Cc1ccccc1C(OCCN(C)C)C1CCCCC1 (stereo not drawn),3.19
20,Cc1nn(C)cc1CNC(=O)c1nn2c(C(F)(F)F)cc(-c3cccs3)nc2c1Br,17.1
21,COC(=O)CNc1nc(Cl)nc(NC2CCCCC2)n1,-5.48
22,CCOc1ccc(N/C=C2/C(=O)NC(=O)N(c3cccc(Cl)c3)C2=O)cc1,-3.46
23,O=C(N/C(C(=O)N1CCOCC1)=C(\Sc1nc2ccccc2o1)c1ccccc1)c1ccccc1,-3.26
24,Cc1ccc(NC(=O)C2CC3c4ccccc4C2c2ccccc23)c(C)c1 (stereo not drawn),-0.0217

row,Compound,% Inhibition @ 10 uM [%]
1,O=C(NCc1ccncc1)C(O)(c1ccccc1)c1ccccc1,2.8
2,CC(=O)C(C(C)=O)=C(N)NC(=O)c1ccccc1,-4.24
3,O=C(O)CCN1C(=O)C2CC=C(Cl)CC2C1=O (stereo not drawn),1.05
4,Cc1ccc(Cl)cc1NC(=O)c1c(Br)c(C)nn1C,-2.8
5,COc1cccc2c1cc1c(=O)n(CC(=O)N3CCN(c4ccccn4)CC3)nc(C)n12,-3.47
6,O=C1N/C(=C/c2ccc(N3CCCCC3)cc2F)C(=O)N1Cc1ccccc1,-7.9
7,CCOC(=O)N1CCc2c(sc3c2c(=O)n(Cc2ccccc2)c(=O)n3Cc2ccccc2C)C1,-1.21
8,Cc1cccc(CCNC(=O)CCc2nnc3n(CCc4ccccc4)c(=O)c4ccccc4n23)c1,2.6
9,NC(=O)c1cc(NC(=O)c2cc3ccccc3cc2O)cc(C(N)=O)c1,0.774
10,Cc1ccc(S(=O)(=O)c2nc(S(C)(=O)=O)sc2N2CCCCC2C)cc1 (stereo not drawn),2.76
11,COc1ccc(/C=C\c2onc(C)c2S(=O)(=O)N2CCC(C(=O)Nc3cccc(C)n3)CC2)cc1,-4.96
12,Nc1nc(OCC(F)(F)C(F)F)cc(-c2ccccc2)n1,3.95
13,COc1ccc(C(=O)N(CCCN(C)C)c2nc3ccc(F)cc3s2)cc1,-1.07
14,CC(=O)N1N=C2CCCCC2C1C(C)C (stereo not drawn),-1.56
15,O=C(NCC1CCN(Cc2ccc(Cl)cc2)CC1)c1cc2ccc3cccnc3c2[nH]1,-0.0157
16,COc1ccc(CCNC(=O)c2ccc(CS(=O)c3ccc(Br)cc3)o2)cc1OC (stereo not drawn),-9.16
17,O=C(COc1ccc(F)cc1)Nc1c(C(=O)N2CCC(N3CCCCC3)CC2)oc2ccccc12,0.0065
18,Nc1ccc(C(=O)CC2(O)C(=O)Nc3c(Cl)cc(Cl)cc32)cc1 (stereo not drawn),-2.85
19,Cn1c(=O)c2sccc2n2c(CCCC(=O)NCCOc3cccc(C(F)(F)F)c3)nnc12,0.331
20,O=S(=O)(c1ccccc1)N1CCC(Cc2ccccc2)CC1,-6.44
21,C/N=C1\S/C(=C\c2ccc(OC)cc2)C(=O)N1C,3.32
22,CCCc1[nH]nc2c1C(c1cc(Cl)cc(Cl)c1O)C(C#N)=C(N)O2 (stereo not drawn),2.3
23,CCOC(=O)c1cn(CC)c2cc(N3CCN(C)CC3)c(F)cc2c1=O,-4.32
24,CCc1ccc(-n2nc(C)c3c(C)cc(=O)n(CC(=O)NC(C)c4ccccc4)c32)cc1 (stereo not drawn),4.15
